# Changes are numbered by the printed parent chain; changes in the protein carry UniProt numbers. The list shows a part of the results.
# B1: AGGGACC (DNA:RNA)
# RNA: GGGAGACCGGAAUUCAGAUUGUCCAGGGACCUUAAAUCCCGUCGUAGCCACCA
# DNA 1: CAATCTGAATTCCGGTCTCCC
# DNA 2: TGGTGGCTACGACGGGATT
# B2: AGUACCU (DNA:RNA)
# RNA: B1 RNA with G27U, G28A, A29C, C31U
# DNA 1: CAATCTGAATTCCGGTCTCCC
# DNA 2: TGGTGGCTACGACGGGATT
# B3: CGAGCUA (DNA:RNA)
# RNA: B1 RNA with A25C, G27A, A29C, C30U, C31A
# DNA 1: CAATCTGAATTCCGGTCTCCC
# DNA 2: TGGTGGCTACGACGGGATT
# B4: UCGCUGA (DNA:RNA)
# RNA: B1 RNA with A25U, G26C, G28C, A29U, C30G, C31A
# DNA 1: CAATCTGAATTCCGGTCTCCC
# DNA 2: TGGTGGCTACGACGGGATT
# B5: ACAUUUU (DNA:RNA)
# RNA: B1 RNA with G26C, G27A, G28U, A29U, C30U, C31U
# DNA 1: CAATCTGAATTCCGGTCTCCC
# DNA 2: TGGTGGCTACGACGGGATT
# B6: UCGUAUU (DNA:RNA)
# RNA: B1 RNA with A25U, G26C, G28U, C30U, C31U
# DNA 1: CAATCTGAATTCCGGTCTCCC
# DNA 2: TGGTGGCTACGACGGGATT
# B7: AUAGAAU (DNA:RNA)
# RNA: B1 RNA with G26U, G27A, C30A, C31U
# DNA 1: CAATCTGAATTCCGGTCTCCC
# DNA 2: TGGTGGCTACGACGGGATT
# B8: AAUAACC (DNA:RNA)
# RNA: B1 RNA with G26A, G27U, G28A
# DNA 1: CAATCTGAATTCCGGTCTCCC
# DNA 2: TGGTGGCTACGACGGGATT
# B9: GAAAGCC (DNA:RNA)
# RNA: B1 RNA with A25G, G26A, G27A, G28A, A29G
# DNA 1: CAATCTGAATTCCGGTCTCCC
# DNA 2: TGGTGGCTACGACGGGATT
# B10: GCUGCGU (DNA:RNA)
# RNA: B1 RNA with A25G, G26C, G27U, A29C, C30G, C31U
# DNA 1: CAATCTGAATTCCGGTCTCCC
# DNA 2: TGGTGGCTACGACGGGATT
# B11: CGGAGCU (DNA:RNA)
# RNA: B1 RNA with A25C, G28A, A29G, C31U
# DNA 1: CAATCTGAATTCCGGTCTCCC
# DNA 2: TGGTGGCTACGACGGGATT
# B12: AUGUGCC (DNA:RNA)
# RNA: B1 RNA with G26U, G28U, A29G
# DNA 1: CAATCTGAATTCCGGTCTCCC
# DNA 2: TGGTGGCTACGACGGGATT
# B13: GAGUGGA (DNA:RNA)
# RNA: B1 RNA with A25G, G26A, G28U, A29G, C30G, C31A
# DNA 1: CAATCTGAATTCCGGTCTCCC
# DNA 2: TGGTGGCTACGACGGGATT
# B14: CGCCUAC (DNA:RNA)
# RNA: B1 RNA with A25C, G27C, G28C, A29U, C30A
# DNA 1: CAATCTGAATTCCGGTCTCCC
# DNA 2: TGGTGGCTACGACGGGATT
# B15: ACAAUAC (DNA:RNA)
# RNA: B1 RNA with G26C, G27A, G28A, A29U, C30A
# DNA 1: CAATCTGAATTCCGGTCTCCC
# DNA 2: TGGTGGCTACGACGGGATT
# B16: CUUCAGU (DNA:RNA)
# RNA: B1 RNA with A25C, G26U, G27U, G28C, C30G, C31U
# DNA 1: CAATCTGAATTCCGGTCTCCC
# DNA 2: TGGTGGCTACGACGGGATT
# B17: UCGAGUU (DNA:RNA)
# RNA: B1 RNA with A25U, G26C, G28A, A29G, C30U, C31U
# DNA 1: CAATCTGAATTCCGGTCTCCC
# DNA 2: TGGTGGCTACGACGGGATT
# B18: UGGAUUC (DNA:RNA)
# RNA: B1 RNA with A25U, G28A, A29U, C30U
# DNA 1: CAATCTGAATTCCGGTCTCCC
# DNA 2: TGGTGGCTACGACGGGATT
# B19: GGCUCGC (DNA:RNA)
# RNA: B1 RNA with A25G, G27C, G28U, A29C, C30G
# DNA 1: CAATCTGAATTCCGGTCTCCC
# DNA 2: TGGTGGCTACGACGGGATT
# B20: CGAUACG (DNA:RNA)
# RNA: B1 RNA with A25C, G27A, G28U, C31G
# DNA 1: CAATCTGAATTCCGGTCTCCC
# DNA 2: TGGTGGCTACGACGGGATT
# B21: GUCGUGC (DNA:RNA)
# RNA: B1 RNA with A25G, G26U, G27C, A29U, C30G
# DNA 1: CAATCTGAATTCCGGTCTCCC
# DNA 2: TGGTGGCTACGACGGGATT
# B22: UUGGUAA (DNA:RNA)
# RNA: B1 RNA with A25U, G26U, A29U, C30A, C31A
# DNA 1: CAATCTGAATTCCGGTCTCCC
# DNA 2: TGGTGGCTACGACGGGATT
# B23: AAGUAAU (DNA:RNA)
# RNA: B1 RNA with G26A, G28U, C30A, C31U
# DNA 1: CAATCTGAATTCCGGTCTCCC
# DNA 2: TGGTGGCTACGACGGGATT
# B24: CCUGUAU (DNA:RNA)
# RNA: B1 RNA with A25C, G26C, G27U, A29U, C30A, C31U
# DNA 1: CAATCTGAATTCCGGTCTCCC
# DNA 2: TGGTGGCTACGACGGGATT
# B25: CUCACAU (DNA:RNA)
# RNA: GGGAGACCGGAAUUCAGAUUGUCCCUCACAUUUAAAUCCCGUCGUAGCCACCA
# DNA 1: CAATCTGAATTCCGGTCTCCC
# DNA 2: TGGTGGCTACGACGGGATT
# B26: AUCAGGG (DNA:RNA)
# RNA: B25 RNA with C25A, C29G, A30G, U31G
# DNA 1: CAATCTGAATTCCGGTCTCCC
# DNA 2: TGGTGGCTACGACGGGATT
# B27: UCCCAGA (DNA:RNA)
# RNA: B1 RNA with A25U, G26C, G27C, G28C, C30G, C31A
# DNA 1: CAATCTGAATTCCGGTCTCCC
# DNA 2: TGGTGGCTACGACGGGATT
# B28: UGCGCAA (DNA:RNA)
# RNA: B25 RNA with C25U, U26G, A28G, U31A
# DNA 1: CAATCTGAATTCCGGTCTCCC
# DNA 2: TGGTGGCTACGACGGGATT
# B29: UCUUCGA (DNA:RNA)
# RNA: B25 RNA with C25U, U26C, C27U, A28U, A30G, U31A
# DNA 1: CAATCTGAATTCCGGTCTCCC
# DNA 2: TGGTGGCTACGACGGGATT
# B30: CUAGGGG (DNA:RNA)
# RNA: B25 RNA with C27A, A28G, C29G, A30G, U31G
# DNA 1: CAATCTGAATTCCGGTCTCCC
# DNA 2: TGGTGGCTACGACGGGATT
# B31: UUACCUU (DNA:RNA)
# RNA: B25 RNA with C25U, C27A, A28C, A30U
# DNA 1: CAATCTGAATTCCGGTCTCCC
# DNA 2: TGGTGGCTACGACGGGATT
# Biological target: T1, RBFOX1 RRM RbFoxmut (Fox-RRM*) (Homo sapiens, UniProt Q9NWB1 109-208, R118D;E147R;N151S;E152T)
# T1 sequence: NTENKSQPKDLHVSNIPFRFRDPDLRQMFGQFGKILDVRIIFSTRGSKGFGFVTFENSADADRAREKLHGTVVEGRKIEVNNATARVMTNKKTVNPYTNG
# Experiment: EMSA; HiTS-Eq, 1 nM pool, 10 min; buffer printed only for the single-RNA assays: 10 mM Tris pH 7.5, 150 mM NaCl, 3.4 mM EDTA, 0.001% NP-40, 30 C
# Details: tags: His6 N-terminal (pET28a); label: 5' 32P
# Summary of the method: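 A pool of RNA with 7 randomized nucleotides, 5′-radiolabelled and with DNA-annealed flanks, was equilibrated at 1 nM for 10 min in 50 µL with purified RbFox RRM, wild type or mutant, across increasing protein concentrations. Free RNA was separated by 8% native PAGE, excised, reverse-transcribed, barcoded by PCR and sequenced. Relative association constants were obtained from read-count changes of each RNA species versus the control reaction and normalised to the cognate motif.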
row,Binder,binding signal
1,B1,0.0744 KA relative to UGCAUGU
2,B2,0.0855 KA relative to UGCAUGU
3,B3,0.124 KA relative to UGCAUGU
4,B4,0.0669 KA relative to UGCAUGU
5,B5,0.12 KA relative to UGCAUGU
6,B6,0.113 KA relative to UGCAUGU
7,B7,0.12 KA relative to UGCAUGU
8,B8,0.0665 KA relative to UGCAUGU
9,B9,0.0562 KA relative to UGCAUGU
10,B10,0.163 KA relative to UGCAUGU
11,B11,0.0684 KA relative to UGCAUGU
12,B12,0.372 KA relative to UGCAUGU
13,B13,0.0842 KA relative to UGCAUGU
14,B14,0.0879 KA relative to UGCAUGU
15,B15,0.106 KA relative to UGCAUGU
16,B16,0.0988 KA relative to UGCAUGU

row,Binder,binding signal
1,B17,0.0944 KA relative to UGCAUGU
2,B18,0.139 KA relative to UGCAUGU
3,B19,0.113 KA relative to UGCAUGU
4,B20,0.103 KA relative to UGCAUGU
5,B21,0.167 KA relative to UGCAUGU
6,B22,0.156 KA relative to UGCAUGU
7,B23,0.0969 KA relative to UGCAUGU
8,B24,0.135 KA relative to UGCAUGU
9,B25,0.0911 KA relative to UGCAUGU
10,B26,0.1 KA relative to UGCAUGU
11,B27,0.0555 KA relative to UGCAUGU
12,B28,0.0645 KA relative to UGCAUGU
13,B29,0.0689 KA relative to UGCAUGU
14,B30,0.0578 KA relative to UGCAUGU
15,B31,0.081 KA relative to UGCAUGU

# Reference: article PMC9911399, “Two distinct binding modes provide the RNA-binding protein RbFox with extraordinary sequence specificity”
